Measured values: US20260248892A1 (Sanofi, published 2026)

Experiments:
Test in all cases: cell-based or functional assay
[1] = target: human insulin receptor isoform A (human, UniProt P06213-2)
[2] = target: Rat IR (rat, UniProt P15127 27-1383)
[3] = target: Pig IR (pig, UniProt F1SCL0 28-1382)
[4] = target: human insulin receptor isoform B (human, UniProt P06213)

Rat IR, sequence (P15127 27-1383): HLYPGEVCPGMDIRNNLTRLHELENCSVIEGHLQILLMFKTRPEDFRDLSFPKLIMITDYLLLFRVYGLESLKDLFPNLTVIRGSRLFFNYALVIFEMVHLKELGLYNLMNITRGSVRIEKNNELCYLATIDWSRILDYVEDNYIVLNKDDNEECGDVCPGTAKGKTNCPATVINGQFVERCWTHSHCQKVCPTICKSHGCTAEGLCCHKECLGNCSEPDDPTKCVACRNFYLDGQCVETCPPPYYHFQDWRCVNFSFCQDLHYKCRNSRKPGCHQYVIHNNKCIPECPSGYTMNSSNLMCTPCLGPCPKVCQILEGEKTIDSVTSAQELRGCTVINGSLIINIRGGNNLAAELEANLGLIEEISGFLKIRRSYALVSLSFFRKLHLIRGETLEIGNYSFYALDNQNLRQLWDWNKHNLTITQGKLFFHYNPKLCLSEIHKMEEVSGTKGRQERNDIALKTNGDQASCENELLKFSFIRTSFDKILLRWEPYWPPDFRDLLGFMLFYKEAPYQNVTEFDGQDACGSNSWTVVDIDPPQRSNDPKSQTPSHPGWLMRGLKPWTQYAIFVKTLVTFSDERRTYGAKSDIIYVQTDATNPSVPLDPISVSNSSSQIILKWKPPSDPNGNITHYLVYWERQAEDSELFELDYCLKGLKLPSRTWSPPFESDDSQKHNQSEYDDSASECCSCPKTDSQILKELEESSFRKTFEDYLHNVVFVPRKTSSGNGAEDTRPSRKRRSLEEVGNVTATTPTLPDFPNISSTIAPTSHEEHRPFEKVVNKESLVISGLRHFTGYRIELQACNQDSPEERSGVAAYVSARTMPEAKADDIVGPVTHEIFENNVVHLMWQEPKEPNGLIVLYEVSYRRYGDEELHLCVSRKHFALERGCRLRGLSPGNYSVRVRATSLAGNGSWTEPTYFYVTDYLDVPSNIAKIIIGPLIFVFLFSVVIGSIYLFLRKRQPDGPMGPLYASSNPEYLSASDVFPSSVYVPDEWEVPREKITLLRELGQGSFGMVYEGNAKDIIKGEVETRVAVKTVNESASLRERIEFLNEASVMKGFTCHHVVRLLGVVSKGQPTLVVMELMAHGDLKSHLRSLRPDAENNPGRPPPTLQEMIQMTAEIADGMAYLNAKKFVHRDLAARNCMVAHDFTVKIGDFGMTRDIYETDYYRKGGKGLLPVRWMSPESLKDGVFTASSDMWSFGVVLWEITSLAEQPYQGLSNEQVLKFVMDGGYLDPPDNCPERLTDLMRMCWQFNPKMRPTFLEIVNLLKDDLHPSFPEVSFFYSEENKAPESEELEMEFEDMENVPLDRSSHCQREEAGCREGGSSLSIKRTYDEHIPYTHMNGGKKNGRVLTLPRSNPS

B1: scl-Fc fusion protein INS024 (Fc fusion)
chain: SFVNQHLCGSHLVEALELVCGERGFHYTPKTGSYPGGVGIVEQCCTSICSLEQLENYCGGEAEDLQVGQVELGGGPGAGSLQPEGSLQ[letters of human IgG1 Fc with changes left out]
[1]
  hIR-A phosphorylation [EC50 nM] mean: 449 nM
[2]
  Rat IR phosphorylation [EC50 nM] mean: 370 nM
[3]
  Pig IR phosphorylation [EC 50 nM] mean: 73.1 nM
[4]
  hIR-B-phosphorylation [EC50 nM] mean: 466 nM
